Data: PubChem BioAssay AID903 (National Center for Advancing Translational Sciences (NCATS), 2007)
The campaign covered roughly 55,000 compounds. About 340 (0.62%) were called active. The shares of active, inactive and inconclusive entries below differ from those in the screen. Calls follow the shape of the dose curve; as a rule, active = well fitted cell-killing curve with a large enough effect; inconclusive = small, poorly fitted or top-dose-only effect; inactive = no such curve, though single readings can be large or run the other way. Potencies beside an inconclusive call are fits to weak or partial responses and may not hold up.
Potency is read from the fitted curve at half-maximal effect; tags tell the direction and shape of the fitted curve.

Assay: qHTS Screen for Compounds that Selectively Target Cancer Cells with p53 Mutations: Cytotoxicity of p53 Null Cells at the Permissive Temperature; also: nearly all actives have a fitted effect of over 55% in size;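 as to activity change, negative = cytotoxicity: 0% = DMSO only and -100% = full killing by 100 µM tamoxifen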
Details: H1299-neo p53 null cells, ATP luminescence, 24 h, 32C; series mostly up to 46.1 µM; activity change, negative = cytotoxicity: at the top concentration
How it was run: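 H1299-neo (p53-null) cells, 600/well, were pre-incubated overnight at 37C, then exposed to compounds at up to 46 uM for 24 hr at 32C. Viability was measured as ATP content by luminescence, and AC50 values came from Hill fits.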
With COC(=O)c1ccc(C2C(C(=O)Nc3ccccc3)=C(C)Nc3nc4ccccc4n32)cc1 (stereo not given) the Potency was inconclusive: 31.6 µM [cytotoxic, single point]. With O=C(NCCc1ccccc1Cl)c1ccc2c(c1)nc1n2CCCCC1 the Potency was active: 3.16 µM. In the case of COc1cccc(C(=O)Nc2cccc(-c3cn4c(C)csc4n3)c2)c1OC, the Potency is reported as inconclusive: 25.1 µM [cytotoxic, single point]. With COc1ccc(NC(=O)c2cccn2-c2nnc(N3CCCCC3)s2)cc1 the Potency was inconclusive: 15.8 µM [cytotoxic, single point]. For Cc1cc(C)cc(OCC(=O)Nc2ccc(-c3nc4ccccc4o3)cc2)c1, the Potency was inconclusive: 31.6 µM [cytotoxic, single point]. In the case of CCSc1ncc(Cl)c(C(=O)Nc2ccc(S(=O)(=O)N(C)c3ccccc3)cc2)n1, the “activity change, negative = cytotoxicity” value is reported as inactive: 0.184%. For Cc1cc(Nc2cccc(Cl)c2)nc2ccc(NC(=O)c3cccnc3)cc12, the Potency was inconclusive: 12.6 µM [cytotoxic, partial curve]. In the case of Cn1nc(-c2ccc(C(=O)Nc3ccc(F)cc3)cc2)c2ccccc2c1=O, the Potency is reported as inconclusive: 25.1 µM [cytotoxic, single point]. In the case of CCc1ccc(CNC(=O)c2cnc3sc4cc(OC)ccc4n3c2=O)cc1, the Potency is reported as inconclusive: 0.1 µM [cytotoxic, full curve, poor fit]. With COc1cc(CNc2ccc(N3CCCC3)cc2)ccc1OCc1ccccc1 the Potency was inconclusive: 14.1 µM [cytotoxic, single point]. For CCN(c1cc(C)cc(C)c1)S(=O)(=O)c1nnc(NC(=O)c2cccs2)s1, the “activity change, negative = cytotoxicity” value was inactive: 7.62%. With CC1=Nc2cc(C(=O)NCCc3ccc(Cl)cc3)ccc2Sc2ccc(C)cc21 the “activity change, negative = cytotoxicity” value was inactive: 11.2%. In the case of Cc1ccc(C(C)C)c(OCC(=O)Nc2cccc(NC(=O)c3ccco3)c2)c1, the Potency is reported as inconclusive: 35.5 µM [cytotoxic, single point]. For CN(C)CCNC(=O)c1ccc(-n2c(-c3ccccc3)cc3c2CCCC3)cc1, the “activity change, negative = cytotoxicity” value was inactive: 14.7%. With CCCS(=O)(=O)Nc1cc(-c2cn3cccc(C)c3n2)ccc1C the Potency was inconclusive: 12.6 µM [cytotoxic, single point]. With CCC(CC)c1nn2c(=O)cc(COc3ccc(NC(=O)c4ccccc4Cl)cc3)nc2s1 the Potency was inconclusive: 1.58 µM [cytotoxic, full curve]. For CC(C)Cn1c(=O)c2ccccc2n2c(CCC(=O)Nc3cccc(Cl)c3)nnc12, the Potency was inconclusive: 31.6 µM [cytotoxic, single point]. With COc1ccccc1-c1cc(C(=O)Nc2sc3c(c2C#N)CCCC3)no1 the “activity change, negative = cytotoxicity” value was inactive: -6.2%. In the case of COc1cc(OC)c(NS(=O)(=O)c2ccc3c(c2)NC(=O)CCS3)cc1Cl, the “activity change, negative = cytotoxicity” value is reported as inactive: 3.25%. With O=C(CCn1ccc2cc(S(=O)(=O)N3CCCC3)ccc21)NCc1cccc(Br)c1 the “activity change, negative = cytotoxicity” value was inactive: 1.41%. In the case of O=C(NCCSc1c(-c2ccc(F)cc2)[nH]c2ccccc12)c1ccc(S(=O)(=O)N2CCOCC2)cc1, the “activity change, negative = cytotoxicity” value is reported as inactive: 10.1%. In the case of Cc1c(-c2nsc(NC(=O)c3cccs3)n2)nnn1-c1ccc(Br)cc1, the Potency is reported as inconclusive: 25.1 µM [cytotoxic, single point]. In the case of Cc1ccc(-c2c(C)n3c4c(=O)n(C)c(=O)n(C)c4nc3n2-c2cccc(O)c2)cc1, the Potency is reported as inconclusive: 20 µM [cytotoxic, single point]. With O=C(O)Cc1sc(Nc2ccccc2Cl)nc1-c1ccccc1 the Potency was inconclusive: 31.6 µM [cytotoxic, single point]. With CCC1CCCCN1CCCNC(=O)c1ccc2c(c1)N(Cc1ccccc1)C(=O)c1ccccc1S2(=O)=O (stereo not given) the “activity change, negative = cytotoxicity” value was inactive: 1.75%. With CSc1ccc(CNC(=O)c2ccc(NC(=O)c3nsc4ccccc34)cc2)cc1 the Potency was inconclusive: 15.8 µM [cytotoxic, single point]. In the case of CCOc1ccccc1C(=O)Nc1nc2c(s1)CC(C)CC2 (stereo not given), the Potency is reported as inconclusive: 12.6 µM [cytotoxic, single point]. In the case of COc1ccc(Cl)cc1NC(=O)Cn1c(=O)n(CCC(=O)NCc2ccc3c(c2)OCO3)c(=O)c2ccccc21, the Potency is reported as inconclusive: 31.6 µM [cytotoxic, single point]. For O=C(Nc1ccc(OCc2cc(=O)n3c4c(sc3n2)CCCC4)cc1)c1ccccc1, the Potency was inconclusive: 4.47 µM [cytotoxic, single point]. For Cn1cc(C(=O)N2CCN(c3cccc(C(F)(F)F)c3)CC2)c2c3ccccc3n(C)c2c1=O, the “activity change, negative = cytotoxicity” value was inactive: 12.5%. In the case of COc1ccc(-c2nc3c4ccccc4n(CC(=O)N4CCN(c5ccc(F)cc5)CC4)c(=O)n3n2)cc1, the “activity change, negative = cytotoxicity” value is reported as inactive: -9.36%. In the case of CCOC(=O)c1cc2c(=O)n3ccccc3nc2n(CC2CCCO2)c1=NC(=O)c1ccc(OC)cc1OC (stereo not given), the “activity change, negative = cytotoxicity” value is reported as inactive: -0.383%. For O=C(Nc1noc2ccccc12)c1ccc(F)cc1, the Potency was active: 12.6 µM. In the case of COC(=O)Cc1c(C)c2ccc3c(c2oc1=O)CN(Cc1ccc(Cl)cc1)CO3, the “activity change, negative = cytotoxicity” value is reported as inactive: -8.11%. With COc1cccc(CNC(=O)c2cc3cc(C)ccc3n2C)c1 the Potency was inconclusive: 0.794 µM [cytotoxic, full curve]. For CCC(C)NC(=O)/C=C1\Sc2ccccc2NC1=O (stereo not given), the Potency was inconclusive: 4.47 µM [cytotoxic, full curve, poor fit]. In the case of Cc1c(NC(=O)C(C)(C)C)cccc1-c1nc2ccccc2s1, the Potency is reported as active: 10 µM. With CCOc1ccc(CCNc2ncnc3onc(-c4ccc(F)cc4)c23)cc1OCC the Potency was inconclusive: 0.01 µM [cytotoxic, full curve, poor fit]. With Cc1cc(C)n2nc(SCC(=O)Nc3cccc(C(F)(F)F)c3)nc2n1 the “activity change, negative = cytotoxicity” value was inactive: -7.85%. With COc1ccc2nc(NC(=O)c3cc(C)oc3C)sc2c1 the Potency was inconclusive: 14.1 µM [cytotoxic, partial curve]. In the case of Cc1ccc(-c2cnc(NCc3ccc(C(F)(F)F)cc3)n2C)cc1, the Potency is reported as inconclusive: 31.6 µM [cytotoxic, single point]. With Cc1ccc(CCNC(=O)C2CCN(c3nnc(-n4cccc4CNc4ccc(C)cc4)s3)CC2)cc1 the “activity change, negative = cytotoxicity” value was inactive: 21.3%. In the case of CCC(=O)NCC(c1ccc2c(c1)OCO2)N1CCN(c2ccccc2)CC1 (stereo not given), the Potency is reported as inconclusive: 3.55 µM [cytotoxic, single point]. For COc1cc(-c2nc3ncccn3c2Nc2ccc(C)cc2C)ccc1O, the “activity change, negative = cytotoxicity” value was inactive: 16.5%. With CC1=CC2(O)OCCN(CCO)C2=CC1=O (stereo not given) the Potency was inconclusive: 25.1 µM [cytotoxic, single point].
